Experimental data taken from the supplement of paper PMC3334620.
Whole data set: some 33,000 sequences, median “E-score (-0.5 to 0.5)” near -0.013, cut for the highest 2% near 0.3. This is one part of the list.

What follows are sequences tested against T1, Msn1 (UniProt P22148) (assay: PBM E-score (8-mer binding enrichment) (E-score (-0.5 to 0.5)); higher = stronger / more preferred TF binding; most listed sequences are background and not binding sites). Conditions: protein concentration: 200 nM; construct: GST-full length.
T1 sequence: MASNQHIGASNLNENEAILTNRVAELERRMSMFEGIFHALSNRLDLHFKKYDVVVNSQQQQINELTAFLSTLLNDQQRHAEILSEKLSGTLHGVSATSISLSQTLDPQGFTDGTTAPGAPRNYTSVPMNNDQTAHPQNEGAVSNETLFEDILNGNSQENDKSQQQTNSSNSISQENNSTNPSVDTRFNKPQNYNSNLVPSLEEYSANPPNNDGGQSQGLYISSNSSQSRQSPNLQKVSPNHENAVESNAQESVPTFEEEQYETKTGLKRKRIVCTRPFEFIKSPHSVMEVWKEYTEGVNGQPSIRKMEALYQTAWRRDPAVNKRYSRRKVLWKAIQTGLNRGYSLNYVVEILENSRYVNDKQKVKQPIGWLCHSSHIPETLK
In short: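 For each ungapped eight-base word taken together with its reverse complement, the Universal PBM Analysis Suite assigned an E-score. Binding data came from GST-tagged yeast transcription factors, applied at about 100-200 nM, on universal all-10-mer Agilent arrays made double-stranded by primer extension. Fluorescent anti-GST marked bound protein, and scans were normalised with masliner.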

Row | Sequence | PBM E-score
1 | TATGAGCA | -0.218
2 | GGGGACCA | -0.223
3 | AGTGTTCC | 0.0105
4 | CCATGCAC | -0.0223
5 | CACCGAGC | 0.00319
6 | GGTATACC | 0.017
7 | ACTTTTCC | 0.206
8 | AGCATGTA | 0.0635
9 | GCTGAGAA | -0.176
10 | CGTTATTC | 0.0268
11 | GAATTCGA | -0.0695
12 | CTTATGAC | 0.233
13 | AATCCTGT | 0.243
14 | CGATTATA | 0.229
15 | AGCGGTGG | -0.209
16 | CAAGCTCA | 0.0331
17 | AAGTCCTC | 0.244
18 | CTCTCTTA | -0.122
19 | CGAAGTTA | 0.0705
20 | AAAGCGGC | 0.00446
21 | AGACGTGG | -0.0359
22 | ACTTTAAA | 0.174

Row | Sequence | PBM E-score
23 | AGTGCTCA | -0.229
24 | GTGTTCAA | -0.0481
25 | GAGCCAGC | -0.109
26 | ACCGAGGT | -0.122
27 | CGAATAAC | 0.0021
28 | CCCCCGAC | -0.0991
29 | CCTCACCG | -0.281
30 | CCCGGCAG | -0.175
31 | CAAGGATC | 0.0888
32 | ATCCGTGA | 0.0476
33 | ATCTAAGG | -0.0326
34 | ACCTAACG | -0.203
35 | GACCTCGA | 0.0777
36 | ACTAGATC | -0.129
37 | ATGCGTGG | -0.194
38 | TCGCTTAA | 0.133
39 | AAAGTGTA | 0.0246
40 | TTGAACAA | 0.0827
41 | AGACCGTA | -0.249
42 | CTCACTTA | -0.22
43 | ATGACGCG | 0.132
44 | CGCCCTAG | -0.174

Row | Sequence | PBM E-score
45 | AACTGTCC | 0.241
46 | CACGTGGA | 0.138
47 | AGGCCCGA | 0.0495
48 | ATTTATCA | 0.118
49 | CTCGTAAA | 0.0013
50 | CATGTTTC | 0.222
51 | TGATTGAA | 0.134
52 | ACGAAAGA | 0.141
53 | GGAACGCA | -0.0264
54 | ATAACGAG | -0.0658
55 | GGACTCAA | 0.0633
56 | CACTTAGA | 0.123
57 | GTAACAGA | 0.207
58 | CGTTACAA | 0.111
59 | AGTTAGCG | 0.0173
60 | CCCGCGAC | 0.078
61 | GAGCGGCA | -0.231
62 | CAAGCCCC | -0.25
63 | ACTAGCTG | 0.0299
64 | AACCCAAA | 0.194
65 | CAGTGACA | 0.226
66 | ATATAAAT | 0.2

Row | Sequence | PBM E-score
67 | ATATGCAG | -0.00169
68 | GCTGGTCA | 0.0362
69 | AGCAGTGA | 0.041
70 | AGGGTCGA | -0.119
71 | CCTCAAAG | -0.231
72 | ATGGTGGA | -0.16
73 | CCGTTTAG | -0.0318
74 | AACTGTCT | 0.0666
75 | AGTGAGTC | -0.0286
76 | ACCTCAGT | -0.0404
77 | ATTTAGAG | 0.0544
78 | AAGCGTTA | -0.13
79 | CAATTTGC | -0.00349
80 | GCCCTTCC | -0.238
81 | GACGCCAC | -0.165
82 | ATCGGACC | 0.0183
83 | ACCCCGCG | -0.215
84 | GTAGCAGA | 0.0373
85 | CCCCCAAC | -0.179
86 | AAGGAAGC | -0.261
